Measurements taken from PubChem BioAssay (NCI).
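Assay format: 96-well plates, 48-hour exposure. At the GI50, growth is halved. TGI: concentration producing complete growth inhibition.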

Tested on: NCI-H322M lung
Assay: growth of human tumour cells (NCI), 48 h

Row | SMILES | GI50 | TGI
1 | CN(C(=O)c1ccc(C(F)(F)F)cc1C(F)(F)F)c1sc2c(c1C#N)CCC(=O)C2 | 16.8 µM | 34.9 µM
2 | Cn1cc(-c2cc3nc(-c4cn(C)c5ncccc45)cc(N)n3n2)c2cc(Cl)ccc21 | 2.76 µM | 10.3 µM
